# About 2,200 (0.71%) of roughly 310,000 compounds showed an effect of 50% or more. The effect is printed as a negative number. This is one part of the list.
# Target: human ether-à-go-go-related gene (hERG) potassium channel (human, UniProt Q12809)
# Assay: primary screen, population patch clamp on CHO cells stably expressing hERG
# human ether-à-go-go-related gene (hERG) potassium channel, sequence (Q12809 whole entry, looked up): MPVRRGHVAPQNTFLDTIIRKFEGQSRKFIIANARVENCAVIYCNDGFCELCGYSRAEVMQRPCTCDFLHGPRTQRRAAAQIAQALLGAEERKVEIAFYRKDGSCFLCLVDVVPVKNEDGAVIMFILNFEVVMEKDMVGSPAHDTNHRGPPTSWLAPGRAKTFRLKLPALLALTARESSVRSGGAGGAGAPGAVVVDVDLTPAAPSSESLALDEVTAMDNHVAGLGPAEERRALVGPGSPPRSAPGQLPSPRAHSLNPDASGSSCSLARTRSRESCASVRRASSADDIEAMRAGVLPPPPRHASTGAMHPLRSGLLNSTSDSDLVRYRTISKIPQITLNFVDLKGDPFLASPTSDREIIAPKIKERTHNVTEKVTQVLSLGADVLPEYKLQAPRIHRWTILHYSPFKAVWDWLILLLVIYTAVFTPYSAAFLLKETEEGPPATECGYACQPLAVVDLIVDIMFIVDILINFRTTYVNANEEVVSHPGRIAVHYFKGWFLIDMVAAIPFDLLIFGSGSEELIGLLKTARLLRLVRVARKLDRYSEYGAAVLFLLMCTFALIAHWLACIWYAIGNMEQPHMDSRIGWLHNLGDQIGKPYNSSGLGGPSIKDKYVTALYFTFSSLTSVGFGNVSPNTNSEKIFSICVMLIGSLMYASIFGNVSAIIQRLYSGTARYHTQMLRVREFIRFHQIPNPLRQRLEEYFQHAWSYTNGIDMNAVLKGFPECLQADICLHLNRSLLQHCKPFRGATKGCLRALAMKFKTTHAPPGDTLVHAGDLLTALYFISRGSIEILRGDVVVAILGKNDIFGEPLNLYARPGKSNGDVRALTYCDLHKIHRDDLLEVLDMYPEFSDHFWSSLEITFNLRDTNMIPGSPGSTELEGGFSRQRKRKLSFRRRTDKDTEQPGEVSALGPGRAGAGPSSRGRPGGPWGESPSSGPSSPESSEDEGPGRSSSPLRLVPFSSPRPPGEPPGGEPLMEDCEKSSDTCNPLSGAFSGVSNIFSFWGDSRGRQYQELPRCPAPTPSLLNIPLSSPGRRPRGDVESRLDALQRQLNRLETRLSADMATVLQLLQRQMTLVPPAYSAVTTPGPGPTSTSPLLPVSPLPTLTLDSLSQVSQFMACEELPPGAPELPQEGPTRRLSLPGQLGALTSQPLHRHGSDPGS
row,SMILES,"hERG current change (%, negative = inhibition) at 1uM [%]"
1,O=C(CSc1nnc(COc2cccc3cccnc23)o1)N1CCc2ccccc21,14.3
2,CN(CC(=O)Nc1ccccc1Cl)CC(=O)Nc1c(F)cccc1F,16.7
3,O=C(CCn1c(=O)oc2ccccc21)NCCCN1CCN(c2ccc(F)cc2)CC1,-23.7
4,O=C(CSc1nc(-c2ccccc2)c(-c2ccccc2)[nH]1)N1CCN(S(=O)(=O)c2ccccc2)CC1,8.86
5,COc1cc(C(=O)NCCC(=O)N2CCN(C)CC2)cc(OC)c1OC,9.38
6,CCOC(=O)Cn1c(CN2CCOCC2)nc2c1c(=O)n(C)c(=O)n2C,2.78
7,O=C(CCNS(=O)(=O)/C=C/c1ccccc1)NCCc1c[nH]c2ccccc12,10.6
8,NC(=O)c1cnn(Cc2ccc(Cl)cc2)c1N,10.6
9,Cc1c(Cl)cccc1NC(=O)c1nc(C)n(-c2cc(OC(C)C)c(Cl)cc2Cl)n1,22.5
10,COc1cccc(-c2csc(/C(C#N)=C/Nc3cc4oc5ccccc5c4cc3OC)n2)c1,5.17
11,Cc1ccc(-c2cc(C(=O)NC3CCCC3)no2)cc1,6.77
12,Fc1ccc(Oc2cnns2)cc1,14.1
13,COc1ccc(C2SCC(=O)N2Cc2ccccc2)cc1 (stereo not drawn),6.14
14,Cc1cccc2nc(Cn3c(=O)n(CCCC(=O)NCc4ccco4)c(=O)c4ccccc43)cc(=O)n12,9
15,Cc1ccccc1C(=O)Nc1nnc(S(=O)(=O)N(C)Cc2ccco2)s1,17
16,CCCCc1ccc(Nc2ncnc3nc[nH]c23)cc1,3.46
17,O=C(O)C1CCCCC1C(=O)N1CCN(S(=O)(=O)c2ccc(F)cc2)CC1 (stereo not drawn),4.41
18,COc1ccc(/C=N/NC(=O)c2ccc(NC(=O)c3cccc([N+](=O)[O-])c3)cc2)c(OC)c1,8.33
19,COc1ccc(C)cc1Nc1n[n+](-c2ccccc2)c(-c2cc(OC)c(OC)cc2Br)s1.[Cl-],-5.17
20,COc1ccc(CCNC(=O)CCc2nnc(Cc3ccc4c(c3)OCO4)o2)c(OC)c1,11.6
21,COc1ccccc1C(=O)NCC(=O)N/N=C/c1cn[nH]c1-c1ccccc1,-11
22,O=C(CSC1=NS(=O)(=O)c2cc(Cl)ccc2N1)Nc1ccccc1F,5.13

row,SMILES,"hERG current change (%, negative = inhibition) at 1uM [%]"
1,Cc1ccccc1NS(=O)(=O)c1ccc(C)c(C(N)=O)c1,1.8
2,CCCn1nc2cc(C(=O)NCc3ccc(OC(F)(F)F)cc3)ccc2c1OCC,15
3,COc1ccc(NC(=O)CSc2nncc(=O)n2N)cc1OC,13.8
4,Cl.Clc1cccc(-c2ccc(CNCc3ccccn3)o2)c1,6.57
5,CCOc1ccccc1CNC(=O)c1cc2oc3ccccc3c2n1C,9.01
6,CCn1c(=O)n(CC(=O)N(C)Cc2ccccc2)c(=O)c2ccccc21,4.71
7,Cc1cc(C)nc(/N=C(\N)Nc2cc([N+](=O)[O-])ccc2C)n1,-20.1
8,COc1cc2[nH]c(=O)n(Cc3ccc(C(=O)NC4CCN(Cc5ccccc5)CC4)cc3)c(=O)c2cc1OC,9.93
9,CCSc1nnc(NC(=O)C(C)Sc2nc3ccccc3[nH]2)s1 (stereo not drawn),18.1
10,NC(N)=NCC(O)CN(c1ccccc1)c1ccccc1.O=S(=O)(O)O (stereo not drawn),6.54
11,CC1CCCN(C(=O)CCS(=O)(=O)c2ccc3c(c2)n(C)c(=O)c(=O)n3C)C1 (stereo not drawn),9.66
12,O=C(Nc1nncs1)Oc1ccccc1,13.2
13,COc1ccc([N+](=O)[O-])cc1C1NN=C(c2ccccc2O)S1 (stereo not drawn),6.19
14,CN(C)S(=O)(=O)c1ccc(C(=O)Nc2ccccc2C(=O)O)cc1,4.2
15,CCCCNC(=S)N/N=C/c1sccc1C,16.5
16,CCOC(=O)N1CCN(C(=O)COc2cccc3c2CCN(Cc2ccc(F)cc2)C3=O)CC1,-25.4
17,COC(=O)Cc1cc(=O)n2[nH]c(C)nc2n1,-10.3
18,Cc1nc([N+](=O)[O-])cn1CC(=O)c1ccc(OC(F)(F)F)cc1,6.99
19,CCOC(=O)c1c(N)sc2c(OC)c(Br)ccc12,13.7
20,Cc1csc(NC(=O)c2ccc(S(=O)(=O)N3CCN(C)CC3)cc2)n1,13.1
21,O=C(O)CCCCCCCCc1cn(CCc2c[nH]c3ccccc23)nn1,11.9
22,S=C(Nc1ccc(Br)cc1)NC1CCCC1,6.59

row,SMILES,"hERG current change (%, negative = inhibition) at 1uM [%]"
1,COc1ccc(C)cc1NCc1cccc(OC)c1OC,2.77
2,O=C1CSc2nc3ccccc3n21,6.97
3,COc1ccc(N2CCN(CC(O)COCc3ccccc3)CC2)cc1.Cl (stereo not drawn),7.03
4,COC(=O)C1=C(C(=O)OC)[C@@H]2N(Cc3ccccc3)c3ccccc3[C@@]23C[C@@H](C(=O)OC)N(C(=O)c2cc(C)oc2C)C3=N1,6.34
5,COc1ccc(N2C(=NC(=O)c3ccccc3)SC3CS(=O)(=O)CC32)cc1 (stereo not drawn),8.98
6,Cc1ccc(N2C(=O)c3ccc(C(=O)O)cc3C2=O)cc1C,-2.94
7,Cc1ccc(NC(=S)NNC(C)(C)C)cc1,8.63
8,CCOC(=O)c1c(-c2cccs2)csc1NC(=O)CN(CC)CC,3.69
9,COc1ccc(-c2c(-c3cc(OC)cc(OC)c3)n(C)c3ccc(-c4ccc(N(C)C)nc4)cc23)cc1,9.16
10,Cc1cccc(C)c1NC(=O)C1(C)c2cccc[n+]2CC(=O)N1Cc1cccs1.[I-] (stereo not drawn),6.17
11,CC1CC1C(=O)OCC(=O)Nc1ncc(Cl)cc1Cl (stereo not drawn),6.11
12,C/C(O)=C(\C#N)P(=O)(c1ccccc1)c1ccccc1,8.39
13,Cc1ccc(NC(=O)CN2C(=O)S/C(=C\C(=O)Nc3ccc(Cl)cc3)C2=O)cc1,13.7
14,COc1cccc(C(=O)Nc2cc(C(=O)NCc3ccc(C)cc3)ccc2N2CCC3(CC2)CC(c2cccc(Br)c2)=NO3)c1,7.17
15,CC1CC(c2ccccc2)n2nc(NC(=O)c3ccco3)nc2N1 (stereo not drawn),12.6
16,Cc1ccc(S(=O)(=O)N(C)CC(=O)O/N=C(\N)c2cccc(Br)c2)cc1,8.81
17,CCOC(=O)CC(=O)CSc1n[nH]c(=O)[nH]c1=O,10.7
18,Cc1c(C#N)c2ccccc2n1CC(=O)NCc1cccnc1,1.28
19,Cc1ccc(C(=O)c2oc3nc(C)cc(C)c3c2N)cc1,7.73
20,Cc1cc(C)c(C)c(OCC(=O)N2CCCCCC2)c1,1.46
21,Cc1ccccc1-n1c(SCC(=O)N2CCN(c3ccccn3)CC2)nnc1N1CCOCC1,-5.63
22,CN1CCN(c2ccc([N+](=O)[O-])cc2S(=O)(=O)N2CCOCC2)CC1,5.44

row,SMILES,"hERG current change (%, negative = inhibition) at 1uM [%]"
1,Cc1cccc(/C=C2/Sc3ccc(C(=O)N4CCOCC4)cc3NC2=O)c1,14.3
2,CC1CCc2cc(F)ccc2N1C(=O)CSc1nnc2c3cc(F)ccc3n(C)c2n1 (stereo not drawn),7.3
3,COc1ccc(CNCC(O)COc2cccc3c2OC(C)(C)C3)cc1.Cl (stereo not drawn),-31.7
4,Cc1cc(C)c(C)c(S(=O)(=O)N2CCC(C(=O)NNC(=O)c3ccccc3O)CC2)c1C,2.9
5,O=C(CSc1nc2ccc(NC(=O)CSc3nnnn3-c3ccccc3)cc2s1)Nc1ccccc1,9.96
6,CCN(c1ccccc1)S(=O)(=O)c1ccc(F)c(C(=O)O)c1,-14.4
7,CC1=C(C(=O)c2ccccc2)C(c2ccc(N3CCOCC3)cc2)NC(=O)N1 (stereo not drawn),13.9
8,COc1ccccc1OCC(=O)Nc1ncc(C)s1,8.52
9,O=C(CN(CC1CCCO1)C(=O)CNS(=O)(=O)c1ccc(Cl)cc1)NCc1ccc(F)cc1 (stereo not drawn),1.72
10,Cc1cc(C)nc(SCC(=O)Nc2ccc(S(=O)(=O)NC(C)(C)C)cc2)n1,4.28
11,CCCN(C(=O)CSc1nnc2ccccn12)C1CCS(=O)(=O)C1 (stereo not drawn),10.4
12,O=C(NC1CCCCC1)c1ccc(COCC(F)(F)F)o1,8.04
13,COc1cccc(CNC(=O)CCC(=O)N2CC(C)Oc3ccccc32)c1OC (stereo not drawn),13.7
14,CCC(=O)Nc1nc(OC)cc(OC)n1,4.25
15,CCOC(=O)CNC(=S)N(Cc1ccccc1)Cc1cccs1,3.63
16,COc1ccccc1C1SCCN1S(=O)(=O)c1cccc(C(F)(F)F)c1 (stereo not drawn),16.2
17,C=CCn1c(O)c(C(CC)=Nc2ccc(C(=O)O)cc2)c(=O)[nH]c1=O,12.7
18,CC1CCCC(NC(=O)COC(=O)c2ccccc2[N+](=O)[O-])C1C (stereo not drawn),19.7
19,Cc1cc(N/N=C/c2ccccc2O)nc(-c2ccccc2O)n1,12.4
20,O=C(CN1C(=O)CSc2ccccc21)Nc1ccc2c(c1)OCCO2,12.9
21,CC1(c2ccc(OC(F)F)cc2)NC(=O)N(CC(=O)Nc2ccccc2)C1=O (stereo not drawn),-26.2
